Source: the supplement of paper PMC11880418
Where a name gives a salt, the structure may show the parent alone. The list shows a part of the results. The data scatter; read single values as rough.

Columns and labels:
Assay in all cases: ALDHbr (CSC) cell proportion score relative to DMSO vehicle (ratio to DMSO); breast (SUM159) / gastric (MKN45) / pancreatic (PANC1) / colon cancer lines; ALDHbr cells have high ALDH activity and are rich in cancer stem cells (CSC); higher = more CSC (ALDHbr) cells remaining
Settings in all cases: 10 µM; 72 h
MKN45 = system: MKN45
PANC1 = system: PANC1
SUM159 = system: SUM159
T84 = system: T84
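Further: High-content imaging of ALDEFLUOR-stained cells with Hoechst-labelled nuclei in 384-well plates, triplicate wells, scored as Z-score against 0.1% DMSO vehicle, negative meaning fewer ALDHbr cells.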

| Compound | ALDHbr (MKN45) | ALDHbr (PANC1) | ALDHbr (SUM159) | ALDHbr (T84) |
| --- | --- | --- | --- | --- |
| CCOC(=O)O[C@]1(C(=O)COC(=O)CC)CC[C@H]2[C@@H]3CCC4=CC(=O)C=C[C@]4(C)[C@H]3[C@@H](O)C[C@@]21C [Prednicarbate] | 1.11 | 0.612 | 0.829 | 0.945 |
| CC[C@@H]([C@H](C)O)n1ncn(-c2ccc(N3CCN(c4ccc(OC[C@@H]5CO[C@@](Cn6cncn6)(c6ccc(F)cc6F)C5)cc4)CC3)cc2)c1=O [Posaconazole] | 0.11 | 0.989 | 0.482 | 0.659 |
| c1ccc(C2CN3CCSC3=N2)cc1 (stereo not drawn) [Tetramisole hydrochloride] | 1.12 | 0.951 | 0.957 | 0.814 |
| CN[C@H]1CC[C@@H](c2ccc(Cl)c(Cl)c2)c2ccccc21 [Sertraline] | 0.817 | 1.1 | 0.348 | 0.318 |
| Cc1onc(-c2ccccc2Cl)c1C(=O)N[C@@H]1C(=O)N2[C@@H]1SC(C)(C)[C@@H]2C(=O)O [Cloxacillin sodium salt] | 1.07 | 0.875 | 1.05 | 0.87 |
| CCn1nc(C(=O)O)c(=O)c2cc3c(cc21)OCO3 [Cinoxacin] | 0.876 | 0.798 | 1.04 | 0.937 |
| C=CC1=C(C(=O)O)N2C(=O)[C@@H](NC(=O)/C(=N\OCC(=O)O)c3csc(N)n3)[C@H]2SC1 [Cefixime] | 1.23 | 0.792 | 0.99 | 1.08 |
| CC[N+](CC)(CC)CCC(O)(c1ccccc1)C1CCCCC1 (stereo not drawn) [Tridihexethyl chloride] | 1.09 | 0.879 | 1.17 | 0.902 |
| CCC(Cc1c(I)cc(I)c(N)c1I)C(=O)O (stereo not drawn) [Iopanoic acid] | 1.07 | 0.879 | 1.07 | 0.94 |
| COc1cc(N)c(Cl)cc1C(=O)NC1CCN(CCCOc2ccc(F)cc2)CC1OC (stereo not drawn) [Cisapride] | 0.949 | 0.779 | 1.08 | 0.89 |
| COc1ccc2[nH]cc(CCNC(C)=O)c2c1 [Melatonin] | 0.949 | 0.824 | 1.05 | 0.924 |
| CCN1CCCC1CNC(=O)c1cc(S(=O)(=O)CC)c(N)cc1OC (stereo not drawn) [Amisulpride] | 1.04 | 0.98 | 0.925 | 1.01 |
